The campaign covered roughly 420,000 compounds. About 64,000 (15%) were called active. Inconclusive means that the source gave no clear call. Such entries were picked first, then a sample of the others. Calls come from the whole dose curve; as a rule, active = well fitted inhibition curve with a large enough effect; inconclusive = small, poorly fitted or top-dose-only effect; inactive = flat fitted curve, though single readings scatter. Potencies of inconclusive entries are left out as doubtful fits.
experiment: qHTS for Inhibitors of human tyrosyl-DNA phosphodiesterase 1 (TDP1): qHTS in cells in absence of CPT; details: DT40 Tdp1-/- hTDP1 cells, no CPT, ATP luminescence, 48 h; activity change, negative = growth inhibition: at 46.2 µM (top of the series); note: nearly all actives have a fitted effect of over 55% in size
Outline: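 Growth of hTDP1-complemented DT40 Tdp1-knockout cells is measured by ATP luminescence after at least 48 hr compound exposure at 37 °C, with DMSO substituting for the 20 nM CPT used in the parallel screen.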
% is set by controls: 0 for no effect and ±100 for the full control effect; potency is the fitted concentration of half-maximal effect; tags give direction and shape of the fitted curve.

SMILES | activity change, negative = growth inhibition | Potency
Cc1c(NS(=O)(=O)c2cc(C(=O)NCCc3ccc(F)cc3)cc(Cl)c2Cl)c(=O)n(-c2ccccc2)n1C | inconclusive: -30.7% [inhibitor] | 
CCn1c(CC(=O)Nc2ccc(C)cc2)nnc1SCC(=O)Nc1nc(C)cs1 |  | inconclusive [inhibitor, single point]
COc1cc(C)c(S(=O)(=O)N2CCCC2)cc1C(C)C |  | inconclusive [inhibitor, single point]
CCOC(=O)N1CCC(NC(=O)c2cnn3cccnc23)CC1 | inconclusive: -36.3% [inhibitor] | 
NNC(=O)c1[nH]c2ccccc2c1-c1ccccc1 |  | active: 14.6 µM
COc1ccccc1-c1sc2ccccc2c1-c1ccc(OCCN2CCOCC2)cc1 |  | active: 13 µM
O=C(O)c1cccc(-c2ccc(/C=N/Nc3ccc([N+](=O)[O-])cc3)o2)c1 | inactive: -21.8% | 
CC(=O)c1cccc(NC(=O)COC(=O)COc2ccccc2C)c1 | inactive: -14.4% | 
CCOc1ccccc1NC(=O)CC1Nc2cc(C)c(C)cc2NC1=O (centres undefined) |  | inconclusive [inhibitor, single point]
Cc1cccc(N(CC(O)CON=C2c3ccccc3-c3ccccc32)S(C)(=O)=O)c1 (centres undefined) |  | inconclusive [inhibitor, single point]
COc1ccc(C2C(C(=O)c3ccc(C)o3)=C(O)C(=O)N2c2cc(C)on2)cc1OC (centres undefined) | inactive: -2.13% | 
CC(C)c1ccccc1NC(=O)c1cccc(NC(=O)c2ccccc2)c1 |  | inconclusive [inhibitor, single point]
CC1CCN(c2nn3c(=O)c(C(=O)NC(C)C)cnc3s2)CC1 |  | inconclusive [inhibitor, single point]
CCn1c(SCc2nnc(-c3ccccc3)o2)nnc1-c1ccc(S(=O)(=O)N2CCCC2)cc1 |  | inconclusive [inhibitor, single point]
COc1ccc(N2CC(O)=C(c3nc(-c4ccc(F)cc4)cs3)C2=N)cc1 | inactive: 16.6% | 
CC#CC(=O)N1CCCC(C(=O)c2ccc(SC)cc2)C1 (centres undefined) |  | inconclusive [inhibitor, single point]
COc1cc2sc3ccc(C#Cc4ccccn4)cc3c(=O)c2cc1OC |  | inconclusive [inhibitor, partial curve, poor fit]
COc1ccc(S(=O)(=O)Nc2cc3c4c(c2)CCC(=O)N4CCC3)cc1C |  | inconclusive [inhibitor, partial curve]
Cc1ccc2c(c1)N(C(C)C(=O)NCc1ccc3c(c1)OCO3)C(=O)CO2 (centres undefined) | inactive: 20.3% | 
Cc1ccc(/C=N/NC(=O)C(=O)N/N=C/c2ccc(C)o2)o1 | inactive: 1.96% | 
O=C(CSc1nnc(SCc2ccccc2)s1)N/N=C/c1ccc(Cl)cc1Cl |  | inconclusive [inhibitor, partial curve, poor fit]
O=c1c2ccccc2nc2n1CCN2Cc1ccc(Cl)cc1 |  | inconclusive [inhibitor, single point]
Cn1ncc(=S)[nH]c1=S |  | inconclusive [inhibitor, single point]

SMILES | activity change, negative = growth inhibition | Potency
COc1cccc(N2CCN(C(=O)c3ccc(CS(=O)c4ccccc4C)o3)CC2)c1 (centres undefined) |  | active: 0.58 µM
COc1ccc2c(C)cc(Sc3nnnn3-c3ccccc3)nc2c1 |  | inconclusive [inhibitor, single point]
Cc1nn(C)c2c1c(-c1ccccc1)cc(=O)n2CC(=O)NC(C)c1ccccc1 (centres undefined) |  | inconclusive [inhibitor, single point]
COc1ccc(CNS(=O)(=O)c2cc3c4c(c2)C(C)C(=O)N4CCC3)cc1 (centres undefined) |  | inconclusive [inhibitor, partial curve, poor fit]
Cc1ccccc1NC(=O)CSc1nc(N2CCCCC2)nc(N2CCCCC2)n1 | inactive: -15.3% | 
CNC(=S)Nc1ccc([N+](=O)[O-])cc1 | inactive: -24.8% | 
COc1ccccc1NC(=S)NCc1ccc(Cl)cc1 |  | inconclusive [inhibitor, single point]
COC(=O)c1sc(NC(=O)CSc2nncs2)c(C(=O)OC)c1C | inactive: -13.6% | 
Cc1ccccc1NC(=O)CN1C(=O)NC2(CCc3ccccc32)C1=O (centres undefined) | inactive: -12.7% | 
CCc1c(Nc2ccccc2Cl)nc(N)[nH]c1=O |  | inconclusive [inhibitor, partial curve, poor fit]
Brc1cc2c(cc1Cn1c(-c3cncs3)nc3ccccc31)OCO2 |  | inconclusive [inhibitor, single point]
CC(C)c1ccc(C(=O)NNC(=O)C2CC=CCC2C(=O)O)cc1 (centres undefined) |  | inconclusive [inhibitor, single point]
CC1C(=O)N(Cc2cn(Cc3ccco3)nn2)CCS(=O)(=O)N1Cc1ccc(-c2ccccc2C(F)(F)F)cc1 (centres undefined) |  | inconclusive [inhibitor, single point]
O=C(Cn1c(=O)n(Cc2ccccc2)c(=O)c2sc3ccccc3c21)Nc1ccccc1 |  | inconclusive [inhibitor, partial curve]
COc1ccc(C(=O)c2c(C)c(CCC#N)n3ccccc23)c(OC)c1 |  | active: 20.6 µM
CCN1CCOC(=O)C1CC(=O)Nc1ccc(Br)cc1 (centres undefined) |  | inconclusive [inhibitor, single point]
Cc1ccc(Cl)cc1NC(=O)c1sc(-n2nc(C)c(Cc3ccc4c(c3)OCO4)c2C)nc1C |  | active: 2.91 µM
CCOc1ccc(-c2cc3nc(C4CCN(C(=O)OC(C)(C)C)CC4)c(C(=O)Nc4cc(OC)ccc4OC)cn3n2)cc1 |  | inconclusive [inhibitor, single point]
CCN(CC(=O)Nc1c(F)cccc1F)C(=O)CNC(=O)c1ccc2ccccc2c1 |  | inconclusive [inhibitor, partial curve, poor fit]
CC(C)[C@@H]1CN=C(N)N1C[C@@H]1CCCN1C[C@H](C)N1C[C@@H](Cc2ccccc2)N(CCc2ccc(Cl)c(Cl)c2)C1=N |  | inconclusive [inhibitor, single point]
CC1(C)CC(=O)C2=C(C1)N(c1ccccc1)C(N)=C(C#N)C2c1ccccc1 (centres undefined) | inactive: -28.8% | 
COc1cccc(C(C)NC(=O)C2CCCO2)c1 (centres undefined) | inactive: -2.2% | 
CCOc1ccc(C(=O)/C=C/c2cn(CN3CCN(C)CC3)c3ccccc23)cc1 |  | inconclusive [inhibitor, single point]

SMILES | activity change, negative = growth inhibition | Potency
COc1ccccc1NC(=O)CN(c1ccccc1)S(=O)(=O)c1ccccc1 | inactive: -23.9% | 
COC(=O)c1cccc(OCCCN2CCC(C(O)(c3ccccc3)c3ccccc3)CC2)c1 |  | inconclusive [inhibitor, single point]
O=S(=O)(Nc1ccc(O)c2ccccc12)c1ccc(OC(F)(F)F)cc1 |  | inconclusive [inhibitor, single point]
CCC(Cc1ccccc1)NC(=O)CSc1ccsc1[N+](=O)[O-] (centres undefined) | inconclusive: -32.9% [inhibitor] | 
Cn1c(CN2CCCC2)nc2cc(NC(=O)c3cccs3)ccc21 |  | inconclusive [inhibitor, single point]
Cc1cc(C)cc(OCC(=O)OCC(=O)NC2CCCCCCC2)c1 | inactive: -3.6% | 
COc1ccc(Oc2c(OC)cc(NCc3ccc(CN)cc3)c3ncccc23)cc1 |  | active: 25.9 µM
COc1cc(NC(=O)CSc2ccc(-c3cccnc3)nn2)cc(OC)c1 |  | inconclusive [inhibitor, single point]
COc1ccc(CNC(=O)CN2CCC(n3nnc4cc(F)ccc43)CC2)cc1 |  | inconclusive [inhibitor, single point]
CC1=CC(C)(C)NC(=S)N1c1cc(C)cc(C)c1 |  | inconclusive [inhibitor, single point]
COc1ccc(-n2c(-c3ccco3)nc3c(cnn3-c3ccccc3Cl)c2=O)cc1 |  | inconclusive [inhibitor, single point]
COc1cc(NC(=O)c2ccccc2Cl)c(OC)cc1NC(=O)CN1CCOCC1 |  | inconclusive [inhibitor, single point]
CN(NC1CC(=O)N(c2ccccc2)C1=O)c1ccccc1 (centres undefined) |  | inconclusive [inhibitor, single point]
O=C(NCCc1ccccc1)C1CC(=O)N(C2CCCC2)C1 (centres undefined) | inactive: -17.9% | 
Cc1ccc(Cl)cc1NC(=O)Nc1cccc(OCc2cc(=O)n3ccccc3n2)c1 | inactive: -7.05% | 
COc1ccc(N2CCN(C(=O)C3CCCN(S(=O)(=O)c4cccc5cccnc45)C3)CC2)cc1 (centres undefined) |  | inconclusive [inhibitor, single point]
Cc1ccc(C2N(c3ccc(F)cc3)C(=O)C3CCCN32)cc1 (centres undefined) | inactive: -11.9% | 
Cc1n[nH]c(C)c1CCN(C)Cc1cn(C)nc1-c1ccccc1F | inactive: 1.38% | 
O=C(CC1CCCC1)NCCS(=O)(=O)N1CCN(c2ccccc2F)CC1 |  | inconclusive [inhibitor, single point]
O=C(c1ccc(CS(=O)Cc2cccc(Cl)c2)o1)N1CCN(c2ccc(F)cc2)CC1 (centres undefined) |  | active: 16.4 µM
COC(=O)[C@@]12C[C@@H](CC(=O)N3CCC(c4ccccc4)CC3)C(=O)N(Cc3ccccc3)C1=CCC(C)(C)C2 |  | active: 14.6 µM
Cc1ccccc1-n1c(SC/C(O)=C(\C#N)c2nc3ccccc3[nH]2)nnc1-c1ccncc1 |  | inconclusive [inhibitor, single point]
Cc1cc(=O)n(Cc2ccccc2)c2c1c(C)nn2C |  | inconclusive [inhibitor, single point]

Reference: PubChem BioAssay AID686978 (National Center for Advancing Translational Sciences (NCATS), 2013)
